PMC10726135
This is one part of the list. At the low end of the ranking the order means little. The protein was read in a cell extract, so binding may be indirect.

Target: T1, HNF4alpha2 (COS-7 nuclear extract) (UniProt P41235)
T1 sequence: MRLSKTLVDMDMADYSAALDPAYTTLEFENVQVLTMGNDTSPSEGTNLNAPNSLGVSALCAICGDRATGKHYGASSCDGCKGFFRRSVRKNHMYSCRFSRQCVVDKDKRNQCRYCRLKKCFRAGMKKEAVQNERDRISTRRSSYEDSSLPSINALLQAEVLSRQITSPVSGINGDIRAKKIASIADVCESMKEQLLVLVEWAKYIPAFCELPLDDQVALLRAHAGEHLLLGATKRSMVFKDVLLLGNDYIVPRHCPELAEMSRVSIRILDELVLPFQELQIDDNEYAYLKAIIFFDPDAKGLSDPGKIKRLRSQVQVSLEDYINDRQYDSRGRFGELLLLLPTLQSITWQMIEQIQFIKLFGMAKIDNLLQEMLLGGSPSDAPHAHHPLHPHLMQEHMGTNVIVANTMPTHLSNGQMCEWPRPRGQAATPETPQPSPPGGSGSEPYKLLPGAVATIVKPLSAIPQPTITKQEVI
Test: protein-binding microarray
Conditions: COS-7 nuclear extract on double-stranded Agilent 4x180k PBM; binding buffer, salt, pH and temperature not given; high values mean tight binding; double strand, one strand shown; sequences stand for … in …GCCTAGGGAGATTAGAGTATCGGTCGA

| Sequence | binding signal (log2 normalized intensity) |
| --- | --- |
| CACGTGAGAGGGTCGTGATCGATTGAGCAA | -0.495 |
| GAACTAATTTGTCTTTTCTCCCCCGATAAG | 4.51 |
| GAGGCTTTGAGTCATTGAGGCTTTGCCTTA | 0.1 |
| TCTTTACACCATTGCAAGGATTCCAAATTT | -0.162 |
| CAACCAAGGTTGCAGAGTGTCCCACTTCAG | -1.03 |
| CTAGGATTCTTGCATGATCGATCACACAGA | 0.145 |
| GCCCCAGTCCCCCGGACCAGGCCGGGTCAC | 4.11 |
| ATCTCTTTGCAATGTAAACATCAAGGAAGA | 0.275 |
| CCCCGCCCGCAGCCCAGTCTTGGCCCCACC | 6.22 |
| CCTAAATCTAAGCTGGACTTTGAACTTCAT | 8.99 |
| TTCTTATCTCACACAGTACTTTGTACATGG | 1.75 |
| AAATAGATAAGTCCCTAAGAGGAATAGTCA | -1.08 |
| GAGGGAGCCAGGTTATGCAGAGCTTAGTTT | -1.19 |
| CCTTTTATTCAAACAGAGGACAGTTGTGTT | 1.98 |
| CACTGATAAAACTGGAATAAAGCAGTCCCT | -1.15 |
| CTTCCAGTCCACAGTCCAGTGACTATCTGC | 0.852 |
| TATGGAGAGGAAAGATGGGGATATAATCAT | -1.01 |
| TAAGTAAACTGTTCAAGACTTTCAGCCAAC | -1.11 |
| GTCCAGAGTAGGCTTGCAAGACTGCATTCC | -1.21 |
| AGCAAGACTGCAAAATAGACAAACAGCAAT | -1.19 |
| CTTTGTTTGGAAAAGATTAAGTTATCCATG | 1.51 |
| GGAAGGGCTGGAGACGCAGGAGATGAAAAA | -0.886 |
| GACATAGTTTTTGCCCTTAAGCAGCATGTA | 1.16 |
| ATGGTTTGACCCTGCGATAAGTAGATACCA | 0.964 |

| Sequence | binding signal (log2 normalized intensity) |
| --- | --- |
| TGTCTTCTGACCTTTGGCAATATCTCCCAG | 3.48 |
| GCCATTTCTGAGCAAATATTTGGGGTATGT | 1.51 |
| CCTGAAGCCTTCCTTAATCCTTCAGTATGC | 0.828 |
| CTTAAATAATGCATACGCTAGCTTTCTGGT | -0.269 |
| CTCATGAGGGGCCTGTCAGGCCCAGAAACA | -0.671 |
| ACCTCCTGGGCCCAAGTGCTCCTCCCCATC | 3.37 |
| ATAAGGGTGGCCATCCATCCTGGCGACAGC | -1.19 |
| AAGCTGATAAGCCAAGAATGTACTCTCCCC | 2.52 |
| TTCAAAGGACAGACTTTGGACCTGGCCCTC | 5.66 |
| TCTGGGAAATGTAGTTCCGGAGAACACGGA | 0.42 |
| GGTCCATAAAACCAGTCAGGCAAACAACAG | -1.25 |
| TTTTAATGTGTGCTTTCAGGTGTGAACCCA | 3.13 |
| CATGTTGAGTGGAATATGAGGTCAGGGTTC | 2.71 |
| TCCACATCAGAGAGTTCAAACTCTGAAGTT | 1.02 |
| CTTTCCTAATGGTACCATCTGCCACTCATA | -0.978 |
| GGTACAGAAACAGCTGGATTGTTACATCAT | 0.0638 |
| AGCCAAGCTCCCCTTTTAAACTGAAGCATG | -1.16 |
| TTTAACTTGGCAAGGGGAGGCACTCATGGT | -1.02 |
| AGGGACTAAGCTTGTAGACCAAGGAGGCCT | -1.05 |
| ATGTTAGTCTTGAGTCCCAAAGTCCAAAGG | 5.42 |
| GGGTCAAAGTCTGGATCCGTTAACAGCGGC | 2.43 |
| TCATATTTGTTATATTTGTTATACCAGACA | 1.9 |
| ACATCTCCGAGTCCAGGGATAACAGTCCTG | -0.842 |
| AAACAATGACCTCTGCACCCTTCCCTGAGT | 3.51 |

| Sequence | binding signal (log2 normalized intensity) |
| --- | --- |
| GGATTTTTTGGGTAAAGTCCAGGCAGGACA | 2.17 |
| ACACCGTATCATCAAACCTGTTATTTGCGC | 1.25 |
| TTCTTTTTGAAGCAAAGCCTTTGAGCAGAT | 0.819 |
| CCTCTTTTAAGAAGCCAGTGTCTATTTACA | 0.876 |
| TTTTTTTTTTTTTTTTTTTTGAGATGGAAT | 2.61 |
| CCTTGGCCTCCCGGAGAGGCCCCGCCCCGT | 4.84 |
| CAGAGTAGCCTATCAGAAGAATCTGTATCA | -1.07 |
| CTTCTCCTCCCCTCCCCCCAGTTCCCTGGG | 4.75 |
| CTGAGCACTGTCTCAGGGTCCACATTCCAG | 2.6 |
| CGCTCCTCTCTGTATTCCCTCTCTTCAGAA | 0.543 |
| GAGGACTGAGCCCGCTCCACTCCGGGCGAT | -1.07 |
| GAGGTCATGTACATGAAAGCAAGTTAAAAC | 1.09 |
| CCTGGAGCAAACTTACTCTGGGGGAACCTC | -0.871 |
| TTTGATCTGGGTGGGGGTGGAGGCAGCAGC | -1.01 |
| TCAACACTGAAATAGCATACCTTTATTAAG | 0.439 |
| ATTAGGACCTGTTTGTCTTGCTGGGGAGAT | 1.19 |
| GTTGAGTGAATGGATGGATCCGCAGCCAGG | -1.05 |
| AGAGCATCAGCAATGAACAAAGGTCGGTGG | 3.41 |
| CAATCTCGAGATCATTTACATGTGTAACAA | 0.984 |
| GAGGTGAGAAGCCTGAAATGAGTTTCATTA | 0.613 |
| AATGGATCTAAGGACAAAGTCCAAGGAAGG | 4.48 |
| GAGGGCTCAAGGTCTGCATGCCATTTTGCA | -1.14 |
| GTTATCTATGGAACATGGACTTTGAACCTC | 10.3 |
| GGCCAAGGCAGATATACCAGATAAGGCAGT | -1.11 |

| Sequence | binding signal (log2 normalized intensity) |
| --- | --- |
| ACGTGGAAGAAACTCATCTCCAGATAAGAC | -0.885 |
| AAACCCTGAGGGTCAACACAATCTGATAGT | -0.851 |
| TAATGACTGATAATTGAAAACAGAGATTGG | 0.904 |
| CGGCGCCGGACGCGTCCTCGGCTCTGCGCA | -1.15 |
| TTGTATGCTTAACTATGTTTATCAGAGCAA | -1.14 |
| GATGCCTAGGATTCTTGCATGATCGATCAC | 1.7 |
| TTTAACCTCCCTGCAGGTCTCTAAATGGTA | -0.0968 |
| GGCCTTTGGAATCAAACAGATGTAGACATT | 2 |
| ACTGCATTCCCTTTCTCCTCCCCTCCCCTC | 4.31 |
| TTGGAGTTGAGGTCAGACATGGCTGTATGT | 1.81 |
| GTCTAATTGTGCTGAGAGAGTCCTTGTTTG | 1.63 |
| AGTGTGTAAGTATGCTCACTGACCTCTGCC | 3.34 |
| TAGCAATAATCTTTGAAATCTGCAAATAGA | -0.0917 |
| TGGATGTTTCCTTTGAACTCTGCATCCAGG | 2.14 |
| ACAAATGAAAGAGCTCAAATGACAGAACAG | -1.14 |
| CAGTAGTTCTCCTTTCTGCCCTTTGAAGCA | 2.88 |
| AGGAACTTGTTGGTAACCGGAGCAAAGGTT | 3.05 |
| TCTCCTCTGCCACTGTATCAGGGAGATAGT | -1.1 |
| GCAGAATTTCTTTTAATGTGTGCTTTCAGG | 1.58 |
| CCAGATAAGACTATCTCATGACAGACCTAA | -1.19 |
| TTGAACTGCTGGGGGTAAAGTGGATTGCTG | 0.207 |
